Source: article PMC5834211
Results are given in words; binding and its absence hold for the method and conditions named. For some of these results: Binding seen in cells or lysates may run through a third protein. Some entries that bind do so weakly or less than the wild type. For some of these results: Tags and fused reporters may be left off the sequences shown.

T1: endogenous DHX29 (THP-1 cells) (human (endogenous in THP-1)) (UniProt Q7Z478)
T1 sequence: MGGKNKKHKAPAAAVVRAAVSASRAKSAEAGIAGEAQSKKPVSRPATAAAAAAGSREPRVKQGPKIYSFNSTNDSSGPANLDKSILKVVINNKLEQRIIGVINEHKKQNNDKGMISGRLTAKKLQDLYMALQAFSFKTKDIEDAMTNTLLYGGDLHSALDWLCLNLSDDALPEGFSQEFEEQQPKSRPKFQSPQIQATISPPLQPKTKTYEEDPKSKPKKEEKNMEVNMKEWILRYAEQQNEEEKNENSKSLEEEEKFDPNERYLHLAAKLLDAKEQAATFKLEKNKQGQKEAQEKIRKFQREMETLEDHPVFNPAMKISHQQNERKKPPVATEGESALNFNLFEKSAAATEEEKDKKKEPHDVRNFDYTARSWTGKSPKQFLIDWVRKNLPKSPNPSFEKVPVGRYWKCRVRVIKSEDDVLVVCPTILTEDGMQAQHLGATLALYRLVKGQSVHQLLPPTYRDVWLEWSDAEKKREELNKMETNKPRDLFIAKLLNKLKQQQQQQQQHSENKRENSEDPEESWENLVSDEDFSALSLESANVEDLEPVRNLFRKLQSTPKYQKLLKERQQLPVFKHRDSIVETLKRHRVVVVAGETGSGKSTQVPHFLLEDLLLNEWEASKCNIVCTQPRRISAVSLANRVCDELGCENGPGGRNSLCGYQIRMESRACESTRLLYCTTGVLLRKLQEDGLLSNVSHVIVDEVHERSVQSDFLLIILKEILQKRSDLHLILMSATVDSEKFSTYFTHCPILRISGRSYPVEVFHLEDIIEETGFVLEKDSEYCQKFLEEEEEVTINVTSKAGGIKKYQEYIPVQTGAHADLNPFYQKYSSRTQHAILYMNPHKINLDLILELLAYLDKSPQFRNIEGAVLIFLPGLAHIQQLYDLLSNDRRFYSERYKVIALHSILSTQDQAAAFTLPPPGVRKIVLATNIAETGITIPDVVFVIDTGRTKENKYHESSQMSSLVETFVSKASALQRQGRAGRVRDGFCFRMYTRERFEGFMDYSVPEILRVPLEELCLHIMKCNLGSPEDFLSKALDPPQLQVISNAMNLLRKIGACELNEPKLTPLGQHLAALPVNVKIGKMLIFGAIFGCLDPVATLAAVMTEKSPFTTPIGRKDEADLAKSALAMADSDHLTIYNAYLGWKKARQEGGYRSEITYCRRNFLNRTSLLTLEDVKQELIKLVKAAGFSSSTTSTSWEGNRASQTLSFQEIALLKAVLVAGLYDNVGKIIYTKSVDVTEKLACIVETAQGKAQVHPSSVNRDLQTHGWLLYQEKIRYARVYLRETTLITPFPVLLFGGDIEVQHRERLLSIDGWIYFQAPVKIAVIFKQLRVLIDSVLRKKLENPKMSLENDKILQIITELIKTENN

T2: Flag-MDA5 (full-length, FL-MDA5) (UniProt Q9BYX4)
T2 sequence: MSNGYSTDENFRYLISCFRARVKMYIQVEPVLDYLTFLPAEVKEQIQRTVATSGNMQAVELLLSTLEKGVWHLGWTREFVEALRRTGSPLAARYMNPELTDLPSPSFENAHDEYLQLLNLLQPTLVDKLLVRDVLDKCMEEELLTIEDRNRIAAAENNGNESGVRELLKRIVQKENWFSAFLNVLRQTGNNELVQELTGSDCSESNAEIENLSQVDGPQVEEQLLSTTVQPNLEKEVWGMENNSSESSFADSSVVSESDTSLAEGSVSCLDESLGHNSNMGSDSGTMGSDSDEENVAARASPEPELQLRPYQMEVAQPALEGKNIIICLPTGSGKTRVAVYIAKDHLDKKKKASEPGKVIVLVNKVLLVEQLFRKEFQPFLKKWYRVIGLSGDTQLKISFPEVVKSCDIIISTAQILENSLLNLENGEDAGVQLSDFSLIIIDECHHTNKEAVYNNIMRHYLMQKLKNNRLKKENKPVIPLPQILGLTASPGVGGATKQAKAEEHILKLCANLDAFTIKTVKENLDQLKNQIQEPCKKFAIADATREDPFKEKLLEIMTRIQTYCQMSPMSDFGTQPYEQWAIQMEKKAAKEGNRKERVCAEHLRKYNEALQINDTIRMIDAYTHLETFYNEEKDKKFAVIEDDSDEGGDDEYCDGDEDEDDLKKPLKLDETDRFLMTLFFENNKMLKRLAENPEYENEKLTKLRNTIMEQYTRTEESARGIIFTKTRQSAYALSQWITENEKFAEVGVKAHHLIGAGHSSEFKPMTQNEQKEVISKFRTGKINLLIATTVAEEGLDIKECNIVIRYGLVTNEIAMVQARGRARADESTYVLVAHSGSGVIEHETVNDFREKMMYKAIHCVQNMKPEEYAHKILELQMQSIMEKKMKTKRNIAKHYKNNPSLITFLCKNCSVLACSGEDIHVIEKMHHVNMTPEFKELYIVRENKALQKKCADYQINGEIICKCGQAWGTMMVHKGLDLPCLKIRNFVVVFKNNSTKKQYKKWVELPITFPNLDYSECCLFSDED

T3: Flag-LGP2 (UniProt Q96C10)
T3 sequence: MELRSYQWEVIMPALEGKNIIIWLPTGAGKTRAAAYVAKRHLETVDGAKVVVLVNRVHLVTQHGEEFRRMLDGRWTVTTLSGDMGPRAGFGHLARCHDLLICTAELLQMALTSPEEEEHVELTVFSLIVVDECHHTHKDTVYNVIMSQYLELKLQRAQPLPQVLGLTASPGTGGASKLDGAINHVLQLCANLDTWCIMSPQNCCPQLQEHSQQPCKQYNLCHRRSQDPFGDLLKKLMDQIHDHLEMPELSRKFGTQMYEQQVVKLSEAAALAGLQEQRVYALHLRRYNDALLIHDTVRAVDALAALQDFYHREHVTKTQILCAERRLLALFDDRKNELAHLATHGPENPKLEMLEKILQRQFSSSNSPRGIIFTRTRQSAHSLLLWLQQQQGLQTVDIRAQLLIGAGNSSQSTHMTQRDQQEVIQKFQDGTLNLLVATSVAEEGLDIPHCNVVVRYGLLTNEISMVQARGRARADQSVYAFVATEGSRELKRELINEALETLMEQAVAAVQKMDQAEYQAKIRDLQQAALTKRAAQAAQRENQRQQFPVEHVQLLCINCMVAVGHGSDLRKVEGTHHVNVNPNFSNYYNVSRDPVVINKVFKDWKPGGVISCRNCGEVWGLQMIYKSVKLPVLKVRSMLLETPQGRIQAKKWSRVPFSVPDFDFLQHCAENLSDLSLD


Experiments:
[1] = target: T1, endogenous DHX29 (THP-1 cells) (human (endogenous in THP-1)); assay: co-IP; THP-1 cells treated with HMW Poly(I:C) or infected with EMCV (MOI 10) at the indicated time points; immunoprecipitation with anti-DHX29 antibody, immunoblot with anti-MDA5
[2] = target: T1, endogenous DHX29 (THP-1 cells) (human (endogenous in THP-1)); assay: condition: only cells stimulated with intracellular LMW Poly(I:C); co-IP; THP-1 cells stimulated with intracellular LMW Poly(I:C) (text; the legend of S5F says HMW); immunoprecipitation with anti-DHX29 antibody, immunoblot with MDA5 antibody
[3] = target: T2, Flag-MDA5 (full-length, FL-MDA5); assay: co-IP; 293T cells transfected with HA-DHX29 and Flag-RIG-I, Flag-MDA5 or Flag-LGP2, various kinds of stimulation (8 hr; EMCV 6 hr); stringent lysis buffer containing 1% Triton X-100; anti-Flag beads, immunoblot with anti-HA
[4] = target: T2, Flag-MDA5 (full-length, FL-MDA5); assay: co-IP; 293T cells cotransfected; whole cell lysates immunoprecipitated with anti-Flag beads, immunoblotted with anti-HA and anti-Flag (S5A, Fig 5I, S6A); in S5E with 20 ng Flag-MDA5 and intracellular HMW Poly(I:C) at the indicated time points
Flag-LGP2 [5] = target: T3, Flag-LGP2; assay: co-IP; as S5G and S5H but less stringent cell lysis buffer containing 0.1% NP-40; anti-Flag beads, immunoblot with anti-HA
[6] = target: T2, Flag-MDA5 (full-length, FL-MDA5); assay: pull-down; purified HA-DHX29 and Flag-MDA5 co-incubated with or without HMW Poly(I:C) for 4 h; pull-down with anti-Flag beads, immunoblot with anti-Flag or anti-HA; both purified
Flag-LGP2 [7] = target: T3, Flag-LGP2; assay: condition: only stringent lysis buffer containing 1% Triton X-100; co-IP; 293T cells transfected with HA-DHX29 and Flag-RIG-I, Flag-MDA5 or Flag-LGP2, various kinds of stimulation (8 hr; EMCV 6 hr); stringent lysis buffer containing 1% Triton X-100; anti-Flag beads, immunoblot with anti-HA

| binding [1] | binding [2] | binding [3] | binding [4] | binding (Flag-LGP2 [5]) | binding [6] | binding (Flag-LGP2 [7]) | Binder |
| --- | --- | --- | --- | --- | --- | --- | --- |
| binds | no binding |  |  |  |  |  | endogenous MDA5 (THP-1 cells) (protein, UniProt Q9BYX4 1-1025) MSNGYSTDENFRYLISCFRARVKMYIQVEPVLDYLTFLPAEVKEQIQRTVATSGNMQAVELLLSTLEKGVWHLGWTREFVEALRRTGSPLAARYMNPELTDLPSPSFENAHDEYLQLLNLLQPTLVDKLLVRDVLDKCMEEELLTIEDRNRIAAAENNGNESGVRELLKRIVQKENWFSAFLNVLRQTGNNELVQELTGSDCSESNAEIENLSQVDGPQVEEQLLSTTVQPNLEKEVWGMENNSSESSFADSSVVSESDTSLAEGSVSCLDESLGHNSNMGSDSGTMGSDSDEENVAARASPEPELQLRPYQMEVAQPALEGKNIIICLPTGSGKTRVAVYIAKDHLDKKKKASEPGKVIVLVNKVLLVEQLFRKEFQPFLKKWYRVIGLSGDTQLKISFPEVVKSCDIIISTAQILENSLLNLENGEDAGVQLSDFSLIIIDECHHTNKEAVYNNIMRHYLMQKLKNNRLKKENKPVIPLPQILGLTASPGVGGATKQAKAEEHILKLCANLDAFTIKTVKENLDQLKNQIQEPCKKFAIADATREDPFKEKLLEIMTRIQTYCQMSPMSDFGTQPYEQWAIQMEKKAAKEGNRKERVCAEHLRKYNEALQINDTIRMIDAYTHLETFYNEEKDKKFAVIEDDSDEGGDDEYCDGDEDEDDLKKPLKLDETDRFLMTLFFENNKMLKRLAENPEYENEKLTKLRNTIMEQYTRTEESARGIIFTKTRQSAYALSQWITENEKFAEVGVKAHHLIGAGHSSEFKPMTQNEQKEVISKFRTGKINLLIATTVAEEGLDIKECNIVIRYGLVTNEIAMVQARGRARADESTYVLVAHSGSGVIEHETVNDFREKMMYKAIHCVQNMKPEEYAHKILELQMQSIMEKKMKTKRNIAKHYKNNPSLITFLCKNCSVLACSGEDIHVIEKMHHVNMTPEFKELYIVRENKALQKKCADYQINGEIICKCGQAWGTMMVHKGLDLPCLKIRNFVVVFKNNSTKKQYKKWVELPITFPNLDYSECCLFSDED |
|  |  | binds | binds | binds weakly | binds | no binding | HA-DHX29 (full-length, FL-DHX29) (protein, UniProt Q7Z478 1-1369) MGGKNKKHKAPAAAVVRAAVSASRAKSAEAGIAGEAQSKKPVSRPATAAAAAAGSREPRVKQGPKIYSFNSTNDSSGPANLDKSILKVVINNKLEQRIIGVINEHKKQNNDKGMISGRLTAKKLQDLYMALQAFSFKTKDIEDAMTNTLLYGGDLHSALDWLCLNLSDDALPEGFSQEFEEQQPKSRPKFQSPQIQATISPPLQPKTKTYEEDPKSKPKKEEKNMEVNMKEWILRYAEQQNEEEKNENSKSLEEEEKFDPNERYLHLAAKLLDAKEQAATFKLEKNKQGQKEAQEKIRKFQREMETLEDHPVFNPAMKISHQQNERKKPPVATEGESALNFNLFEKSAAATEEEKDKKKEPHDVRNFDYTARSWTGKSPKQFLIDWVRKNLPKSPNPSFEKVPVGRYWKCRVRVIKSEDDVLVVCPTILTEDGMQAQHLGATLALYRLVKGQSVHQLLPPTYRDVWLEWSDAEKKREELNKMETNKPRDLFIAKLLNKLKQQQQQQQQHSENKRENSEDPEESWENLVSDEDFSALSLESANVEDLEPVRNLFRKLQSTPKYQKLLKERQQLPVFKHRDSIVETLKRHRVVVVAGETGSGKSTQVPHFLLEDLLLNEWEASKCNIVCTQPRRISAVSLANRVCDELGCENGPGGRNSLCGYQIRMESRACESTRLLYCTTGVLLRKLQEDGLLSNVSHVIVDEVHERSVQSDFLLIILKEILQKRSDLHLILMSATVDSEKFSTYFTHCPILRISGRSYPVEVFHLEDIIEETGFVLEKDSEYCQKFLEEEEEVTINVTSKAGGIKKYQEYIPVQTGAHADLNPFYQKYSSRTQHAILYMNPHKINLDLILELLAYLDKSPQFRNIEGAVLIFLPGLAHIQQLYDLLSNDRRFYSERYKVIALHSILSTQDQAAAFTLPPPGVRKIVLATNIAETGITIPDVVFVIDTGRTKENKYHESSQMSSLVETFVSKASALQRQGRAGRVRDGFCFRMYTRERFEGFMDYSVPEILRVPLEELCLHIMKCNLGSPEDFLSKALDPPQLQVISNAMNLLRKIGACELNEPKLTPLGQHLAALPVNVKIGKMLIFGAIFGCLDPVATLAAVMTEKSPFTTPIGRKDEADLAKSALAMADSDHLTIYNAYLGWKKARQEGGYRSEITYCRRNFLNRTSLLTLEDVKQELIKLVKAAGFSSSTTSTSWEGNRASQTLSFQEIALLKAVLVAGLYDNVGKIIYTKSVDVTEKLACIVETAQGKAQVHPSSVNRDLQTHGWLLYQEKIRYARVYLRETTLITPFPVLLFGGDIEVQHRERLLSIDGWIYFQAPVKIAVIFKQLRVLIDSVLRKKLENPKMSLENDKILQIITELIKTENN |
